Reference: PubChem BioAssay AID1508623 (National Center for Advancing Translational Sciences (NCATS), 2021)
Out of some 48,000 compounds screened, about 450 (0.94%) were called active. Roughly 19% stayed inconclusive and do not appear here. The call rests on the fitted dose curve; in most records, active means well fitted inhibition curve with a large enough effect; inconclusive means small, poorly fitted or top-dose-only effect; inactive means no such curve, though single readings can be large or run the other way. The list shows a part of the results.

experiment: Primary qHTS for Identification of Small Molecule Inhibitors of Huntingtin Promoter Activity; conditions: HEK293 HTT promoter firefly luciferase reporter (activity 0% = vehicle and -100% = no light), 24 h; series mostly up to 57.5 µM; activity change, negative = inhibition: at the top concentration; further: nearly all actives have a fitted effect of over 50% in size
How it was run: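 Quantitative HTS used concentration series of up to 57.5 uM final on HEK293 luciferase reporter cells, 24 h at 37 degrees C. Readout was Dual-Glo firefly luminescence.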
Potency means the concentration at half of the fitted maximal effect.

Row | Structure (SMILES) | activity change, negative = inhibition | Potency
1 | Cc1nc(-c2ccccc2)sc1CCNC(=O)C(=O)Nc1ccc(F)c(Cl)c1 | inactive: -13.5% | –
2 | NC(=O)c1ccccc1NC(=O)CN1c2ccccc2S(=O)(=O)c2ccccc21 | inactive: 9.93% | –
3 | COc1cccc(N2CCN(C(=O)Cn3nc(C)n4c(cc5c(OC)cccc54)c3=O)CC2)c1 | inactive: 2.3% | –
4 | COC(=O)c1c(NC(=O)COc2ccc(Cl)cc2)sc(C)c1C | inactive: -1.75% | –
5 | COCc1cc(C)nc2c1C(=O)NC(c1ccc(Br)cc1)N2Cc1ccccc1 (configuration not stated) | inactive: -14.5% | –
6 | COc1cc(Cl)c(C)cc1NC(=O)Cn1c2ncccc2c(=O)n1-c1ccccc1 | inactive: 0.88% | –
7 | CCc1ccc(-n2nnc(-c3nc(-c4ccc(C)cc4)no3)c2N)cc1 | inactive: 1.72% | –
8 | COc1ccc(Cl)cc1C(=O)NCc1nnnn1-c1ccccc1 | inactive: 6.04% | –
9 | O=C(Nc1sc2c(c1C(=O)NCc1ccccc1)CCCC2)c1cc(=O)c2ccccc2o1 | inactive: -14.2% | –
10 | COc1nnc(-c2ccc(N3CCCCC3)c(NC(=O)c3ccccc3Cl)c2)c2ccccc12 | – | active: 11.2 µM
11 | O=C(NCc1ccc(Cl)cc1)C1CCN(c2ncnc3c2nc2n3CCCCC2)CC1 | inactive: 1.62% | –
12 | CCOc1ccccc1C(=O)NCC(c1cccs1)S(=O)(=O)c1ccc(F)c(C)c1 (configuration not stated) | inactive: -17.8% | –
13 | CC1CCN(C(=O)Cn2cc(SCC(=O)Nc3ccccc3)c3ccccc32)CC1 | inactive: 0.75% | –
14 | COc1cccc(-c2nc(SCC(=O)NCc3ccco3)c3c(=O)n(C)c(=O)n(C)c3n2)c1 | inactive: 14.7% | –
15 | CCOC(=O)c1noc2ncnc(N3CCN(c4cccc(C(F)(F)F)c4)CC3)c12 | inactive: -23.1% | –
16 | COc1ccc(Cn2c(=O)n(-c3ccc(OC)cc3)c(=O)c3c2c2cc(OC)ccc2n3C)cc1 | inactive: -13.2% | –
17 | COc1ccc(-c2cc(C)no2)cc1S(=O)(=O)NCc1ccco1 | inactive: -18.8% | –
18 | CCOC(=O)c1c(-c2ccc(C)cc2)csc1NC(=O)c1cc(=O)c2cc(C)cc(C)c2o1 | inactive: 0.0274% | –
19 | COc1ccc(-n2c(SCc3ccccc3F)nc3c([nH]c4ccccc43)c2=O)cc1OC | inactive: -27.6% | –
20 | COc1cc(NC(=O)c2c3c(nc4ccccc24)C(=O)N(C2CCCCC2)C3)cc(OC)c1 | inactive: -8.67% | –
21 | CCOc1ccc(-c2nonc2NC(=O)c2oc3ccc(C)cc3c2C)cc1OCC | inactive: -15.8% | –
22 | COc1ccc(Cn2ccn(Cc3cccc(Cl)c3)c(=O)c2=O)cc1 | inactive: -22.9% | –
23 | CCCn1cc(S(=O)(=O)c2ccc(OC)cc2)c(=O)c2cc(F)c(N3CCCC(C)C3)cc21 (configuration not stated) | inactive: -11.5% | –
24 | O=C(COc1ccccc1F)Nc1c(C(=O)Nc2cccc(F)c2)oc2ccccc12 | inactive: -2.7% | –

Row | Structure (SMILES) | activity change, negative = inhibition | Potency
25 | Cc1ccc(C(=O)Nc2nc3nc(-c4ccccc4)cc(=O)n3[nH]2)cc1 | inactive: -5.82% | –
26 | CCCCCOC(=O)CSc1nc2sc3c(c2c(=O)n1-c1ccccc1)CC(C)(CC)OC3 (configuration not stated) | inactive: -4.26% | –
27 | Cc1ccc(CNC(=O)CCS(=O)(=O)c2cc3c(cc2C)NC(=O)CO3)cc1 | inactive: -1.84% | –
28 | O=C(CSc1nc2c(oc3ccccc32)c(=O)n1Cc1ccco1)Nc1ccccc1 | inactive: -5.03% | –
29 | Cc1ccc(CN2CCCN(Cc3c(C)cc(C)cc3C)S2(=O)=O)cc1 | inactive: 1.67% | –
30 | Cc1cccc(CSc2nc(-c3cccc(C)c3)nc3c2Cc2c(CO)cnc(C)c2O3)c1 | inactive: -10.2% | –
31 | COc1ccc(C)cc1NC(=O)COCc1cc(-c2ccc(F)cc2)on1 | inactive: -3.92% | –
32 | CC(C)(C)C(=O)OCc1cc(=O)n2nc(C3CC3)sc2n1 | inactive: 4.92% | –
33 | Cc1nn(Cc2noc(C(=O)NC(C)c3ccccc3)n2)c(C)c1Br (configuration not stated) | inactive: -17.7% | –
34 | Cc1ccc(N2CCN(S(=O)(=O)c3c(C)[nH]c(=O)[nH]c3=O)CC2C)cc1 (configuration not stated) | inactive: -11.3% | –
35 | CCOC(=O)c1cc(-c2ccccc2)n(CC(=O)Nc2ccc(CC)cc2)c1C | inactive: -8.05% | –
36 | CCCN(CCC)c1nn2c(=O)c(C(=O)NCc3cc(Br)ccc3OC)cnc2s1 | inactive: -1.23% | –
37 | COc1cc(Cl)c(C)cc1NC(=O)Cn1cc(S(=O)(=O)N2CCC(C)CC2)c2ccccc2c1=O | inactive: -8.13% | –
38 | CC1(C)O[C@@H]2[C@@H](CO[C@@]3(COS(N)(=O)=O)OC(C)(C)O[C@@H]23)O1 | inactive: 4.75% | –
39 | COc1ccc(OC)c(CCNC(=O)CCn2c(=O)c3cccn3c3ccc(F)cc32)c1 | inactive: 0.296% | –
40 | Cc1cccc(S(=O)(=O)c2cn(C)c3cc(N4CCN(c5ccc(F)cc5)CC4)c(F)cc3c2=O)c1 | inactive: -20.7% | –
41 | CC(C)c1ccc(NC(=O)CSC2=Nc3ccccc3C3=NC(CCC(=O)NCc4ccco4)C(=O)N23)cc1 (configuration not stated) | inactive: 11.2% | –
42 | COc1cc(NS(=O)(=O)c2ccc(N)cc2)nc(OC)n1 | inactive | –
43 | CC[N+](CC)(CC(=O)Nc1c(C)cccc1C)Cc1ccccc1 | inactive: -4.65% | –
44 | CC(C)n1cnc2c(NCCCCCCNC(=O)OC(C)(C)C)nc(NCCO)nc21 | inactive: -25.9% | –
45 | CCCCNC(=O)c1ccccc1NC(=O)CN(c1ccccc1)S(=O)(=O)N(C)C | inactive: -16.9% | –
46 | O=C(CSc1nc(=O)n(Cc2ccco2)c2c1CCC2)Nc1ccccc1C(F)(F)F | inactive: -1.7% | –
47 | Cc1ccc2c(=O)cc(C(=O)Nc3ccc(S(=O)(=O)N4CCCCCC4)cc3)oc2c1 | inactive: 7.31% | –
